# Measurements as given in publication PMC12820563.
# This is one part of the list. The list includes weakly bound sequences.
# Biological target: T1, MBP-FoxP3dN (UniProt Q99JB6)
# T1 sequence: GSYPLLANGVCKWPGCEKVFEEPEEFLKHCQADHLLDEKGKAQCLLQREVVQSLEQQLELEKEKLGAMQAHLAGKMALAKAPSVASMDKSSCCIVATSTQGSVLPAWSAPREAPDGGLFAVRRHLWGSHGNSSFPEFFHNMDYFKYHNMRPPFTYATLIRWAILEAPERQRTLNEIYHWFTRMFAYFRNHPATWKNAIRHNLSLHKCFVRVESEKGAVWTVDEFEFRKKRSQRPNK
# Assay: PD-seq (MBP pull-down with sequencing)
# Settings: 20 mM Tris-HCl pH 7.5, 100 mM NaCl, 1.5 mM MgCl2, 0.4 uM protein, 0.1 uM dsDNA library, 30 min, room temperature, amylose pull-down; high values mean tight binding; double strand, one strand shown
row,Sequence,binding signal (RPM ratio (pull-down/input))
1,GATGATTGTTCTCCCAGCTGATGAATTCGTTGCCTCGAGTAAACAAATTTTCCTAATCTTTCTGTTCAAGCGCCATCTAC,2.64
2,GATGATTGTTCTCCCAGCTGATGAATTTGCAGGTTCGAGTAAACAAATTTTCCTAATCTTTCTGTTCAAGCGCCATCTAC,0.591
3,GATGATTGTTCTCCCAGCTGATGAATTGATTCTCTCGAGTAAACAAATTTTCCTAATCTTTCTGTTCAAGCGCCATCTAC,0.395
4,GATGATTGTTCTCCCAGCTGATGAATTTTACGTTTCGAGTAAACAAATTTTCCTAATCTTTCTGTTCAAGCGCCATCTAC,0.363
5,GATGATTGTTCTCCCAGCTGATGAATTCAATCTCTCGAGTAAACAAATTTTCCTAATCTTTCTGTTCAAGCGCCATCTAC,0.362
6,GATGATTGTTCTCCCAGCTGATGAATTTTGGCTCTCGAGTAAACAAATTTTCCTAATCTTTCTGTTCAAGCGCCATCTAC,0.475
7,GATGATTGTTCTCCCAGCTGATGAATTGGGAAGGTCGAGTAAACAAATTTTCCTAATCTTTCTGTTCAAGCGCCATCTAC,0.234
8,GATGATTGTTCTCCCAGCTGATGAATTTCTCCTCTCGAGTAAACAAATTTTCCTAATCTTTCTGTTCAAGCGCCATCTAC,0.237
9,GATGATTGTTCTCCCAGCTGATGAATTACATAGTTCGAGTAAACAAATTTTCCTAATCTTTCTGTTCAAGCGCCATCTAC,0.624
10,GATGATTGTTCTCCCAGCTGATGAATTCTCCTTATCGAGTAAACAAATTTTCCTAATCTTTCTGTTCAAGCGCCATCTAC,0.246
11,GATGATTGTTCTCCCAGCTGATGAATTTTGGGGTTCGAGTAAACAAATTTTCCTAATCTTTCTGTTCAAGCGCCATCTAC,0.546
12,GATGATTGTTCTCCCAGCTGATGAATTGATTCACTCGAGTAAACAAATTTTCCTAATCTTTCTGTTCAAGCGCCATCTAC,0.463
13,GATGATTGTTCTCCCAGCTGATGAATTGGTACGATCGAGTAAACAAATTTTCCTAATCTTTCTGTTCAAGCGCCATCTAC,0.349
14,GATGATTGTTCTCCCAGCTGATGAATTCAGAGCGTCGAGTAAACAAATTTTCCTAATCTTTCTGTTCAAGCGCCATCTAC,0.387
15,GATGATTGTTCTCCCAGCTGATGAATTAGACTTATCGAGTAAACAAATTTTCCTAATCTTTCTGTTCAAGCGCCATCTAC,0.621
16,GATGATTGTTCTCCCAGCTGATGAATTATAACTTTCGAGTAAACAAATTTTCCTAATCTTTCTGTTCAAGCGCCATCTAC,0.542
17,GATGATTGTTCTCCCAGCTGATGAATTATCTCGCTCGAGTAAACAAATTTTCCTAATCTTTCTGTTCAAGCGCCATCTAC,0.31
18,GATGATTGTTCTCCCAGCTGATGAATTTCATACCTCGAGTAAACAAATTTTCCTAATCTTTCTGTTCAAGCGCCATCTAC,0.402
19,GATGATTGTTCTCCCAGCTGATGAATTAAACACGTCGAGTAAACAAATTTTCCTAATCTTTCTGTTCAAGCGCCATCTAC,0.54
20,GATGATTGTTCTCCCAGCTGATGAATTGAGCTTGTCGAGTAAACAAATTTTCCTAATCTTTCTGTTCAAGCGCCATCTAC,2.61
21,GATGATTGTTCTCCCAGCTGATGAATTTGCTCGATCGAGTAAACAAATTTTCCTAATCTTTCTGTTCAAGCGCCATCTAC,0.337

row,Sequence,binding signal (RPM ratio (pull-down/input))
1,GATGATTGTTCTCCCAGCTGATGAATTACTTTGCTCGAGTAAACAAATTTTCCTAATCTTTCTGTTCAAGCGCCATCTAC,0.707
2,GATGATTGTTCTCCCAGCTGATGAATTTTAGCTATCGAGTAAACAAATTTTCCTAATCTTTCTGTTCAAGCGCCATCTAC,0.721
3,GATGATTGTTCTCCCAGCTGATGAATTCGCACCTTCGAGTAAACAAATTTTCCTAATCTTTCTGTTCAAGCGCCATCTAC,0.466
4,GATGATTGTTCTCCCAGCTGATGAATTGGCATCGTCGAGTAAACAAATTTTCCTAATCTTTCTGTTCAAGCGCCATCTAC,1.77
5,GATGATTGTTCTCCCAGCTGATGAATTAAGCGGTTCGAGTAAACAAATTTTCCTAATCTTTCTGTTCAAGCGCCATCTAC,0.596
6,GATGATTGTTCTCCCAGCTGATGAATTCTCTATATCGAGTAAACAAATTTTCCTAATCTTTCTGTTCAAGCGCCATCTAC,0.286
7,GATGATTGTTCTCCCAGCTGATGAATTGAATGTCTCGAGTAAACAAATTTTCCTAATCTTTCTGTTCAAGCGCCATCTAC,0.895
8,GATGATTGTTCTCCCAGCTGATGAATTTCTTGGCTCGAGTAAACAAATTTTCCTAATCTTTCTGTTCAAGCGCCATCTAC,0.329
9,GATGATTGTTCTCCCAGCTGATGAATTTCCTCCGTCGAGTAAACAAATTTTCCTAATCTTTCTGTTCAAGCGCCATCTAC,0.214
10,GATGATTGTTCTCCCAGCTGATGAATTACCATTGTCGAGTAAACAAATTTTCCTAATCTTTCTGTTCAAGCGCCATCTAC,0.538
11,GATGATTGTTCTCCCAGCTGATGAATTATACACATCGAGTAAACAAATTTTCCTAATCTTTCTGTTCAAGCGCCATCTAC,1.12
12,GATGATTGTTCTCCCAGCTGATGAATTCGGACATTCGAGTAAACAAATTTTCCTAATCTTTCTGTTCAAGCGCCATCTAC,0.826
13,GATGATTGTTCTCCCAGCTGATGAATTAAGACTCTCGAGTAAACAAATTTTCCTAATCTTTCTGTTCAAGCGCCATCTAC,1.63
14,GATGATTGTTCTCCCAGCTGATGAATTTCGAAGCTCGAGTAAACAAATTTTCCTAATCTTTCTGTTCAAGCGCCATCTAC,0.272
15,GATGATTGTTCTCCCAGCTGATGAATTCGGATTTTCGAGTAAACAAATTTTCCTAATCTTTCTGTTCAAGCGCCATCTAC,0.506
16,GATGATTGTTCTCCCAGCTGATGAATTGTTCGTTTCGAGTAAACAAATTTTCCTAATCTTTCTGTTCAAGCGCCATCTAC,0.601
17,GATGATTGTTCTCCCAGCTGATGAATTTCCAGTTTCGAGTAAACAAATTTTCCTAATCTTTCTGTTCAAGCGCCATCTAC,0.259
18,GATGATTGTTCTCCCAGCTGATGAATTCTTAGGATCGAGTAAACAAATTTTCCTAATCTTTCTGTTCAAGCGCCATCTAC,0.184
19,GATGATTGTTCTCCCAGCTGATGAATTTATCATGTCGAGTAAACAAATTTTCCTAATCTTTCTGTTCAAGCGCCATCTAC,2.48
20,GATGATTGTTCTCCCAGCTGATGAATTATTCCGCTCGAGTAAACAAATTTTCCTAATCTTTCTGTTCAAGCGCCATCTAC,0.26
21,GATGATTGTTCTCCCAGCTGATGAATTTCCAAGTTCGAGTAAACAAATTTTCCTAATCTTTCTGTTCAAGCGCCATCTAC,0.196

row,Sequence,binding signal (RPM ratio (pull-down/input))
1,GATGATTGTTCTCCCAGCTGATGAATTTTATTCATCGAGTAAACAAATTTTCCTAATCTTTCTGTTCAAGCGCCATCTAC,0.639
2,GATGATTGTTCTCCCAGCTGATGAATTGGTAGTCTCGAGTAAACAAATTTTCCTAATCTTTCTGTTCAAGCGCCATCTAC,1.18
3,GATGATTGTTCTCCCAGCTGATGAATTAGAGCCCTCGAGTAAACAAATTTTCCTAATCTTTCTGTTCAAGCGCCATCTAC,0.358
4,GATGATTGTTCTCCCAGCTGATGAATTCTTCCCTTCGAGTAAACAAATTTTCCTAATCTTTCTGTTCAAGCGCCATCTAC,0.198
5,GATGATTGTTCTCCCAGCTGATGAATTATCGCCATCGAGTAAACAAATTTTCCTAATCTTTCTGTTCAAGCGCCATCTAC,2.38
6,GATGATTGTTCTCCCAGCTGATGAATTTCAAGATTCGAGTAAACAAATTTTCCTAATCTTTCTGTTCAAGCGCCATCTAC,0.21
7,GATGATTGTTCTCCCAGCTGATGAATTATTTGGTTCGAGTAAACAAATTTTCCTAATCTTTCTGTTCAAGCGCCATCTAC,1.08
8,GATGATTGTTCTCCCAGCTGATGAATTGGGTCCTTCGAGTAAACAAATTTTCCTAATCTTTCTGTTCAAGCGCCATCTAC,0.337
9,GATGATTGTTCTCCCAGCTGATGAATTCAGTGGATCGAGTAAACAAATTTTCCTAATCTTTCTGTTCAAGCGCCATCTAC,0.52
10,GATGATTGTTCTCCCAGCTGATGAATTGACAAGTTCGAGTAAACAAATTTTCCTAATCTTTCTGTTCAAGCGCCATCTAC,0.38
11,GATGATTGTTCTCCCAGCTGATGAATTGAATTCGTCGAGTAAACAAATTTTCCTAATCTTTCTGTTCAAGCGCCATCTAC,0.487
12,GATGATTGTTCTCCCAGCTGATGAATTTAGCCAGTCGAGTAAACAAATTTTCCTAATCTTTCTGTTCAAGCGCCATCTAC,1.81
13,GATGATTGTTCTCCCAGCTGATGAATTAAATAGATCGAGTAAACAAATTTTCCTAATCTTTCTGTTCAAGCGCCATCTAC,0.331
14,GATGATTGTTCTCCCAGCTGATGAATTAGTACTCTCGAGTAAACAAATTTTCCTAATCTTTCTGTTCAAGCGCCATCTAC,0.792
15,GATGATTGTTCTCCCAGCTGATGAATTAGACCAATCGAGTAAACAAATTTTCCTAATCTTTCTGTTCAAGCGCCATCTAC,0.29
16,GATGATTGTTCTCCCAGCTGATGAATTGTGACCATCGAGTAAACAAATTTTCCTAATCTTTCTGTTCAAGCGCCATCTAC,0.94
17,GATGATTGTTCTCCCAGCTGATGAATTGTTCACTTCGAGTAAACAAATTTTCCTAATCTTTCTGTTCAAGCGCCATCTAC,0.429
18,GATGATTGTTCTCCCAGCTGATGAATTGCCTGCATCGAGTAAACAAATTTTCCTAATCTTTCTGTTCAAGCGCCATCTAC,1.55
19,GATGATTGTTCTCCCAGCTGATGAATTCAGATAGTCGAGTAAACAAATTTTCCTAATCTTTCTGTTCAAGCGCCATCTAC,0.424
20,GATGATTGTTCTCCCAGCTGATGAATTGTTACCGTCGAGTAAACAAATTTTCCTAATCTTTCTGTTCAAGCGCCATCTAC,0.724
21,GATGATTGTTCTCCCAGCTGATGAATTTGAGTTGTCGAGTAAACAAATTTTCCTAATCTTTCTGTTCAAGCGCCATCTAC,1.46
